Data reported in US12551573B2, “Compositions and methods for the targeting of PCSK9” (Scribe Therapeutics Inc., priority 2022, dated 2026).
Where two headings read alike, the source gives them in different places.

System: HBEGF locus
Assay type: cell-based, human
Conditions: high-throughput screen of dXR repression of the HBEGF gene
[1] = abundance of each domain in the library before vs after diphtheria toxin selection, listed domains met p-value <0.01 and log2(fold change) >2
[2] = change in abundance of each domain in the library before and after diphtheria toxin selection

Row | Molecule | Log2 (fold change) [1] | Log2 (fold change) [2]
1 | DOMAIN_21010 (protein, listed as Equus caballus) MIESQISFEDVAVDFTLEEWQLLNPTQKNLYRDVMLENYSNLAFLGYQIIKPDAVFQLEQEEQWITDEEILNHSCPEEVWL | 2.2253 | –
2 | DOMAIN_21023 (protein, listed as Sarcophilus harrisii) SQIPLTFQDVAVDFTWEEWGLLEPSQKDMYWDVMLEIYENFISLGGVPLSIPDVISQLERMEAPWMTQGGVLISTFLDSST | 3.1196 | –
3 | DOMAIN_21067 (protein, listed as Zalophus californianus) SQGLVTFRDVALDFSQEEWEWLDQSQKDLYRDVMLENYRNLVWLGLSISKPNMISLLEQGKEPWMVEKEMSDGQCADWDSW | 3.0246 | –
4 | DOMAIN_21082 (protein, listed as Loxodonta africana) KPGVVRFVDVAVYFSPEEWACLRPAQRALYRDVMRETYGHLGALGFPGPKPALISWMEQENEAWSPAAQDPEERENLGGVP | 3.2032 | –
5 | DOMAIN_21086 (protein, listed as Pteropus vampyrus) FQGSVMFRDVSINFSQEEWECLDPGQMNLYKEVMLENFSNLVSVGLSSAKPVVISLLEEGKEPWMVEREVKRGLCSDLESM | 2.1339 | –
6 | DOMAIN_382 (protein, listed as Pan paniscus) MAHLMMFRDVAVDFSQEEWECLDLEQRGLYRDVMLENYSNMVSLGLCIYQPEAFSLLEKGKEPWKILRDETRGPCPDMQSR | – | 3.1625
7 | DOMAIN_21110 (protein, Neovison vison) SKVPVTFGDLAIYFSQEEWEWLHPAQRDLYRHVMLENYGHLVSLGLNISKPYVVSLLEQGRDPWLDNRDVRRDLFSESKGE | 2.499 | –
8 | DOMAIN_21123 (protein, listed as Callorhinus ursinus) FQESVTFEDVAVYFSENEWTGLAPAQRVLYRDVMLENYGAVASLAAFPFPKPALISQLERGEAPWCKAPQGALDGEGPRGV | 3.237 | –
9 | DOMAIN_21133 (protein, listed as Suricata suricatta) AQESVTFRDVAVVFSRDEWLCLDPAQRSLYREVMLENYGTLVSLGILFSKPKVIFQLQQGEDPWMVESGVSQGPCVGWESM | 3.1021 | –
10 | DOMAIN_21161 (protein, listed as Sarcophilus harrisii) PQECVTFKDVAVNFTQEEWQQLNPAQRDLYREVMLENYRNLISLGLPVSKPDVIFQLEQGEEPWMLDLQRIEEGEISRNMY | 3.2208 | –
11 | DOMAIN_21162 (protein, listed as Sarcophilus harrisii) LQESVTFSDVAVDFTLEEWGCLCPPQKEMYREVMLENYGNLVCLGLAMSKPDVISRLERGEAPRSPGGDLGSADWGTESGA | 2.885 | –
12 | DOMAIN_21175 (protein, listed as Callorhinus ursinus) SQEPVTFEDVAVYFTQNQWASLDPMQRALYLEVMLENYANITSLALPFPKPDLILQLEQGEAPWGLDPWTPLDGEALGGVH | 3.3334 | –
13 | DOMAIN_21197 (protein, listed as Tursiops truncatus) TQVSVTFDDVAVTFTQEEWRQLDPAQRTLYQEVMLENCRLLVSLGCPVPRLELIFQLEQGQKLWTVKKDLSRSTCPGKRCR | 2.214 | –
14 | DOMAIN_21226 (protein, listed as Sarcophilus harrisii) PQGPVTFQDVAVVFTQEEWRYLDPSQKELYRDVMLENYRNLLYLGLVVSKPNVIYRFEQGEASWRPDQRDSGSTCSDEETG | 2.6942 | –
15 | DOMAIN_21260 (protein, listed as Pteropus vampyrus) MEPVTFEDVAVYFTQNQWASLDPVQRALYREVMLENYANVASLAFPFPKPVLISQLEQGEAPWGPDPGEAEVLKGIWPGGE | 3.1806 | –
16 | DOMAIN_21276 (protein, listed as Mandrillus leucophaeus) FEELVTFEDVFVDFSPEELSSLSAAQRNLYREVMLENYRNLVSLGYQFSKPDIISRLEAEESRAMEKDSRHTVICQGEAHD | 3.0178 | –
17 | DOMAIN_389 (protein, listed as Pan paniscus) MAEGLKFKDVVIYFSQKEWECLHSAQKDLYRDVMLENYGNLVLLGLSDTKPNVISLLEQKKEPWMVKRKETKEWCPDWEFG | – | 3.011
18 | DOMAIN_21312 (protein, Lipotes vexillifer) QAEVTFEDVAVLLSREEWGRLGPVQKGLYRDVMLETYRNLVSLGAGPAGPKPEVITQLERGDEPWVPDVQGREQPTIDGSA | 3.5287 | –
19 | DOMAIN_21333 (protein, listed as Zalophus californianus) SQEPVTFEDVAVYFTQNQWASLDPMQRALYLEVMLENYANITSLALPFPKPDLILQLEQGGAPWGLDPWTPLEGEALGGVH | 3.5801 | –
20 | DOMAIN_21334 (protein, listed as Equus caballus) TSAPVTFGDLAIYFSQEEWEWLSPVQKALYEDVMLENYQTLASLGLSFRRPNVITLLEKGKAPWMVEPVRRRRGLDSGSKC | 2.9508 | –
21 | DOMAIN_21335 (protein, listed as Equus caballus) RQEPVTFEDVAVYFTQNEWVILDPAQRALYREVMLENYANVASLAFSFTRPVLVSQLERGELPPGLDPWERASPEALRGIC | 2.518 | –
22 | DOMAIN_21367 (protein, listed as Equus caballus) SQGSVTFGDVAIDFSREEWEWLQPAQRDLYRIVMLENYGHLVSLGLNVSKPDVVSLLEQGKEPWLGNGDVRRDLFSVSESN | 2.9921 | –
23 | DOMAIN_21369 (protein, listed as Equus caballus) AQESLTFDDVAVEFTWEEWQLLAPAQKDLYRDVMLENYSNLVSVGYQASKPDALSKLVQGEPPWTMEDEIHCRTHSEIWEV | 2.7947 | –
24 | DOMAIN_21371 (protein, listed as Physeter macrocephalus) QPQEAVTFKDVEVTFSQDEWGWLDASQRNLYRDVMLENYGNVASLVGPFTKPALISWLEAREPWGLNVQGAHPKGSPSAAP | 3.8804 | –
25 | DOMAIN_21421 (protein, listed as Pteropus vampyrus) EMDSVTFEDVAVNFTSEEWALLDPSQKKLYRAVMRETFRNLASIGLNLGKKWEDHNIEDRYKTHGKKLRSHMVEKLHESKE | 2.7713 | –
26 | DOMAIN_21481 (protein, listed as Pan paniscus) LRGLVTFEDVAVEFTQEEWALLDPAQRTLYRDVMLENCRNLASLGCRVNKPSLISQLEQDKKVITEERGILPSTCPDLETL | 2.7056 | –
27 | DOMAIN_407 (protein, listed as Pan paniscus) TCMVHRQTMSCSGAGGITAFVAFRDVAVDFTQEEWRLLSPAQRTLHREVMLETYNHLVSLEIPSSKPKLIAQLERGEEPWR | – | 3.8312
